Test in all cases: SPR; imaging SPR (IBIS MX96); IgG immobilised on a carboxymethyldextran sensor (CMD200M) by carbodiimide chemistry with a Continuous Flow Microspotter, printed at 300 and 150 nM; soluble receptor as analyte from 20 uM, 1:3 over 8 points; 5 min association and 5 min dissociation; equilibrium KD (Scrubber 2)
Conditions in all cases: both partners purified
In general terms: In SPR one partner is held on a chip, and binding of the other changes the refractive index at the surface.

For assay [1], the target named is Rh7B2 IgG1 (rhesusized variant of human 7B2) (rhesus macaque (Macaca mulatta)).
The target of assay [2] is RhDH677.3 IgG1 (rhesusized variant of human DH677.3) (rhesus macaque (Macaca mulatta)).
For assay [3], the target named is RM JR4 IgG1 (rhesus macaque mAb, C1C2 Cluster A region) (rhesus macaque (Macaca mulatta)).
The target of assay [4] is RhDH827 IgG1 (rhesusized variant of human DH827) (rhesus macaque (Macaca mulatta)).

B1: human FcγRIIIa (V158) (receptor)
chain: not shown
What is called Kd is the equilibrium constant for the complex coming apart. Read a low Kd as tighter binding. For the molecule B1, the Kd in assay [1] was 1800 nM; in assay [2], 800 nM; in assay [3], 1700 nM; in assay [4] it was 2400 nM.
